Part of at least one peptide drawing is inferred or uncertain, most often the ends. For part of these data: For at least one compound, name, drawing or mass did not settle the structure. Square brackets hold non-standard residues; d marks the D form. Peptide text beside a SMILES is read from it. * marks the point of attachment. Adamantane1carbonyl = O=C(C12CC3CC(CC(C3)C1)C2)*; Oic = O=C(O)[C@@H]1C[C@@H]2CCCC[C@@H]2N1; dIgl = N[C@@H](C(=O)O)C1Cc2ccccc2C1; Igl = N[C@H](C(=O)O)C1Cc2ccccc2C1; Hyp = O=C(O)[C@@H]1C[C@@H](O)CN1; NMeF = CN[C@@H](Cc1ccccc1)C(=O)O; 2Thi = N[C@@H](Cc1cccs1)C(=O)O; NH(CH2)4OH = OCCCCN*
Columns and labels:
isolated rat uterus = conditions: for Uterus Activity, antagonist potency given as pA2: vs double ED50 dose of bradykinin
Text: (§1) A change of one unit of pA2 value represents an order of magnitude change in potency.
(§2) On isolated smooth muscles, agonist potency is given as percent of BK potency; antagonist potency is given as pA2, and is underlined. In blood pressure assays, the number is the dose of peptide in micrograms that causes 50% reduction in the effect of BK intraarterially administered as a bolus mixture in a 500 g male rat; Ag indicates unquantitated agonist activity; Ant indicates unquantitated antagonist activity.

guinea pig ileum = conditions: for Ileum Activity, antagonist potency given as pA2: vs double ED50 dose of bradykinin
Text: as §1, §2

[1] = system: hypotensive action of bradykinin; assay: Blood pressure in the anesthetized rat: inhibition of hypotensive action of bradykinin; assay type: in vivo; conditions: intraarterial bolus mixture with BK, 500 g male rat; indicated approximately
Text: Potencies for the antagonists in this assay are not reported precisely, but rather are indicated approximately.
as §2

B1 receptors = target: T1, B1 receptors (Oryctolagus cuniculus, UniProt P48748); assay: B1 receptor bioassay, rabbit aorta strips contracted with des-Arg9-BK; assay type: cell-based; conditions: 50% reduction of sustained contraction to 10^-7 M des-Arg9-BK
T1 construct: The thorax was opened and the thoracic aorta carefully removed; from tissue; host or cells: rabbit thoracic aorta spiral strips
T1 sequence (P48748 1-352): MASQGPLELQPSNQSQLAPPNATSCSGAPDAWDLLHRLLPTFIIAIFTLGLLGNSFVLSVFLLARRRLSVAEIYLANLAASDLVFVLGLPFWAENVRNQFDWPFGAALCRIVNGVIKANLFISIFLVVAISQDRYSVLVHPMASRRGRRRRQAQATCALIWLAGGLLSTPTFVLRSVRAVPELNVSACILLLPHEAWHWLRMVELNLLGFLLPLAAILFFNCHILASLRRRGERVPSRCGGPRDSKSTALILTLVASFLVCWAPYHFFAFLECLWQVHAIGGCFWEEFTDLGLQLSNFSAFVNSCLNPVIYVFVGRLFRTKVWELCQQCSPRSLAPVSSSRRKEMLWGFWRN
Description: Male New Zealand white rabbits, weight range 2-3 kg, were killed by an overdose of pentobarbital i.v. The thorax was opened and the thoracic aorta carefully removed. […] The tissues were placed under 1 gm isometric tension and allowed to equilibrate for 1H. At time 1h, a concentration-effect curve was constructed to the selective B1 agonist des-Arg^9 -BK. This was repeated at time 3 hours. […] Once the contraction was sustained, the compound to be assayed was applied to the tissue bath in a cumulative manner. The concentration of the compound which produced a 50% reduction of the sustained contraction was calculated. The negative logarithm of this concentration was calculated and expressed as the […].

| Compound | Uterus Activity, antagonist potency given as pA2 (isolated rat uterus) | Ileum Activity, antagonist potency given as pA2 (guinea pig ileum) | Blood Pressure: dose of peptide that causes 50% reduction in the effect of BK [1] | other results |
| --- | --- | --- | --- | --- |
| N=C(N)NCCC[C@@H](N)C(=O)N[C@@H](CCCNC(=N)N)C(=O)N1CCC[C@H]1C(=O)N1C[C@H](O)C[C@H]1C(=O)N(CC(=O)N[C@@H](Cc1cccs1)C(=O)N[C@@H](CO)C(=O)N[C@@H](C(=O)N1[C@H](C(=O)N[C@@H](CCCNC(=N)N)C(=O)O)C[C@@H]2CCCC[C@@H]21)C1Cc2ccccc2C1)C1Cc2ccccc2C1 [Compound 33, DArg-Arg-Pro-Hyp-Nigb-Thi-Ser-DIglb-Oic-Arg] | 5.0 | 5.1 | – | – |
| N=C(N)NCCC[C@@H](N)C(=O)N[C@@H](CCCNC(=N)N)C(=O)N1CCC[C@H]1C(=O)N1C[C@H](O)C[C@H]1C(=O)NCC(=O)N[C@H](C(=O)N[C@@H](CO)C(=O)N1Cc2ccccc2C[C@@H]1C(=O)N1[C@H](C(=O)N[C@@H](CCCNC(=N)N)C(=O)O)C[C@@H]2CCCC[C@@H]21)C1Cc2ccccc2C1 [Compound 17, DArg-Arg-Pro-Hyp-Gly-Iglb-Ser-DTic-Oic-Arg] | – | – | 5 micrograms | Uterus Activity, unquantitated (isolated rat uterus): Ant; Ileum Activity, unquantitated (guinea pig ileum): Ant |
| N=C(N)NCCC[C@H](NC(=O)[C@@H]1C[C@@H]2CCCC[C@@H]2N1C(=O)[C@@H](NC(=O)[C@H](CO)NC(=O)[C@H](Cc1ccccc1)NC(=O)CNC(=O)[C@@H]1C[C@@H](O)CN1C(=O)[C@@H]1CCCN1C(=O)[C@H](CCCNC(=N)N)NC(=O)[C@@H](CCCNC(=N)N)NC(=O)C12CC3CC(CC(C3)C1)C2)C1Cc2ccccc2C1)C(=O)O [Compound 52, Aca-DArg-Arg-Pro-Hyp-Gly-Phe-Ser-Iglb-Oic-Arg] (Adamantane1carbonyl-[dR]RP[Hyp]GFS[Igl][Oic]R-OH) | 7.2 | 5.9 | 0 micrograms | – |
| N=C(N)NCCC[C@@H](N)C(=O)N[C@@H](CCCNC(=N)N)C(=O)N1CCC[C@H]1C(=O)N1C[C@H](O)C[C@H]1C(=O)NCC(=O)N[C@@H](Cc1cccs1)C(=O)N[C@@H](CO)C(=O)N[C@@H](C(=O)NC1(C(=O)N[C@@H](CCCNC(=N)N)C(=O)O)CCCCC1)C1Cc2ccccc2C1 [Compound 37, DArg-Arg-Pro-Hyp-Gly-Thi-Ser-DIglb-AC6-Arg] | 7.0 | 6.0 | – | – |
| CC(C)C[C@H](NC(=O)[C@H](NC(=O)[C@H](CO)NC(=O)[C@H](Cc1cccs1)NC(=O)CNC(=O)[C@@H]1C[C@@H](O)CN1C(=O)[C@@H]1CCCN1C(=O)[C@H](CCCNC(=N)N)NC(=O)[C@H](N)CCCNC(=N)N)C1Cc2ccccc2C1)C(=O)N[C@@H](CCCNC(=N)N)C(=O)O [Compound 35, DArg-Arg-Pro-Hyp-Gly-Thi-Ser-DIglb-Leu-Arg] (H-[dR]RP[Hyp]G[2Thi]S[dIgl]LR-OH) | – | 6.8 | – | Uterus Activity, agonist potency given as percent of BK potency (isolated rat uterus): 3.3% |
| N=C(N)NCCC[C@@H](N)C(=O)N[C@@H](CCCNC(=N)N)C(=O)N1CCC[C@H]1C(=O)N1C[C@H](O)C[C@H]1C(=O)NCC(=O)N[C@@H](Cc1cccs1)C(=O)N[C@@H](CCC(=O)NCCCCO)C(=O)N[C@@H](C(=O)N1[C@H](C(=O)N[C@@H](CCCNC(=N)N)C(=O)O)C[C@@H]2CCCC[C@@H]21)C1Cc2ccccc2C1 [Compound 39, DArg-Arg-Pro-Hyp-Gly-Thi-HBQ-DIglb-Oic-Arg] (H-[dR]RP[Hyp]G[2Thi]E(NH(CH2)4OH)[dIgl][Oic]R-OH) | 7.1 | – | 5 micrograms | – |
| N=C(N)NCCC[C@@H](N)C(=O)N[C@@H](CCCNC(=N)N)C(=O)N1CCC[C@H]1C(=O)N1C[C@H](O)C[C@H]1C(=O)NCC(=O)N[C@@H](Cc1cccs1)C(=O)N[C@@H](CO)C(=O)N[C@@H](C(=O)N[C@@H](Cc1cccs1)C(=O)N[C@@H](CCCNC(=N)N)C(=O)O)C1Cc2ccccc2C1 [Compound 36, DArg-Arg-Pro-Hyp-Gly-Thi-Ser-DIglb-Thi-Arg] | – | 5.4 | 50 micrograms | Uterus Activity, agonist potency given as percent of BK potency (isolated rat uterus): 3.0% |
| N=C(N)NCCC[C@H](NC(=O)[C@@H](NC(=O)[C@H]1Cc2ccccc2CN1C(=O)[C@H](CO)NC(=O)[C@@H](NC(=O)CNC(=O)[C@@H]1C[C@@H](O)CN1C(=O)[C@@H]1CCCN1C(=O)[C@H](CCCNC(=N)N)NC(=O)[C@@H](CCCNC(=N)N)NC(=O)C1=CN2CCC1CC2)C1CCCC1)C1Cc2ccccc2C1)C(=O)O [Compound 50, Dhq-DArg-Arg-Pro-Hyp-Gly-Cpg-Ser-DTic-Iglb-Arg] | – | 5.4 | 5 micrograms | – |
| N=C(N)NCCC[C@@H](N)C(=O)N[C@@H](CCCNC(=N)N)C(=O)N1CCC[C@H]1C(=O)N1C[C@H](O)C[C@H]1C(=O)NCC(=O)N[C@H](C(=O)N[C@@H](CO)C(=O)N[C@@H](C(=O)N[C@H](C(=O)N[C@@H](CCCNC(=N)N)C(=O)O)C1CCCC1)C1Cc2ccccc2C1)C1Cc2ccccc2C1 [Compound 34, DArg-Arg-Pro-Hyp-Gly-Iglb-Ser-DIglb-Cpg-Arg] | 7.8 | 6.8 | 0.05 micrograms | – |
| N=C(N)NCCC[C@H](NC(=O)CN(C(=O)[C@H]1Cc2ccccc2CN1C(=O)[C@H](CO)NC(=O)[C@H](Cc1cccs1)NC(=O)CNC(=O)[C@@H]1C[C@@H](O)CN1C(=O)[C@@H]1CCCN1C(=O)[C@H](CCCNC(=N)N)NC(=O)[C@@H](CCCNC(=N)N)NC(=O)C12CC3CC(CC(C3)C1)C2)C1Cc2ccccc2C1)C(=O)O [Compound 48, Aca-DArg-Arg-Pro-Hyp-Gly-Thi-Ser-DTic-Nigb-Arg] | 6.0 | – | – | – |
| N=C(N)NCCC[C@H](NC(=O)[C@@H]1C[C@@H]2CCCC[C@@H]2N1C(=O)CN(C(=O)[C@H](CO)NC(=O)[C@H](Cc1cccs1)NC(=O)CNC(=O)[C@@H]1C[C@@H](O)CN1C(=O)[C@@H]1CCCN1C(=O)[C@H](CCCNC(=N)N)NC(=O)[C@@H](CCCNC(=N)N)NC(=O)C12CC3CC(CC(C3)C1)C2)C1Cc2ccccc2C1)C(=O)O [Compound 49, Aca-DArg-Arg-Pro-Hyp-Gly-Thi-Ser-Nigb-Oic-Arg] | 7.1 | 6.5 | 50 micrograms | – |
| N=C(N)NCCC[C@@H](N)C(=O)N[C@@H](CCCNC(=N)N)C(=O)N1CCC[C@H]1C(=O)N1C[C@H](O)C[C@H]1C(=O)NCC(=O)N[C@@H](Cc1cccs1)C(=O)N[C@@H](CO)C(=O)N[C@@H](C(=O)N(CC(=O)N[C@@H](CCCNC(=N)N)C(=O)O)C1Cc2ccccc2C1)C1Cc2ccccc2C1 [Compound 28, DArg-Arg-Pro-Hyp-Gly-Thi-Ser-DIgl-Nigb-Arg] | – | – | – | Rabbit Aorta p IC50 B1 receptors (B1 receptors): < 5 |
| CN(C(=O)[C@H](CCCNC(=N)N)NC(=O)[C@H](N)CCCNC(=N)N)[C@@H](Cc1ccccc1)C(=O)N1C[C@H](O)C[C@H]1C(=O)NCC(=O)N[C@H](C(=O)N[C@@H](CO)C(=O)N[C@@H](C(=O)N1[C@H](C(=O)N[C@@H](CCCNC(=N)N)C(=O)O)C[C@@H]2CCCC[C@@H]21)C1Cc2ccccc2C1)C1Cc2ccccc2C1 [Compound 45, DArg-Arg-NMF-Hyp-Gly-Iglb-Ser-DIglb-Oic-Arg] (H-[dR]R[NMeF][Hyp]G[Igl]S[dIgl][Oic]R-OH) | – | 6.5 | 0.5 micrograms | – |
| N=C(N)NCCC[C@@H](N)C(=O)N[C@@H](CCCNC(=N)N)C(=O)N1CCC[C@H]1C(=O)N1C[C@H](O)C[C@H]1C(=O)NCC(=O)N[C@H](C(=O)N[C@@H](CO)C(=O)N1Cc2ccccc2C[C@@H]1C(=O)N1[C@H](C(=O)N[C@@H](CCCNC(=N)N)C(=O)O)C[C@@H]2CCCC[C@@H]21)C1Cc2ccccc2C1 [Compound 25, DArg-Arg-Pro-Hyp-Gly-Iglb-Ser-DTic-Oic-Arg] | – | 7.8 | 0.5 micrograms | Rabbit Aorta p IC50 B1 receptors (B1 receptors): 5.32 ± 0.06; Uterus Activity, agonist potency given as percent of BK potency (isolated rat uterus): 0.7% |
| N=C(N)NCCC[C@H](NC(=O)[C@H](NC(=O)[C@H]1Cc2ccccc2CN1C(=O)[C@H](CO)NC(=O)[C@@H](NC(=O)CNC(=O)[C@@H]1C[C@@H](O)CN1C(=O)[C@@H]1CCCN1C(=O)[C@H](CCCNC(=N)N)NC(=O)[C@@H](CCCNC(=N)N)NC(=O)C1=CN2CCC1CC2)C1CCCC1)C1Cc2ccccc2C1)C(=O)O [Compound 51, Dhq-DArg-Arg-Pro-Hyp-Gly-Cpg-Ser-DTic-DIglb-Arg] | – | 5.8 | 50 micrograms | Uterus Activity, agonist potency given as percent of BK potency (isolated rat uterus): 0.3% |
